Laboratory results published in PubChem BioAssay AID485344 (National Center for Advancing Translational Sciences (NCATS), 2010).
The campaign covered roughly 340,000 compounds. About 6,900 (2%) were called active. Cut-off read from the data, not from the text of the source: active = inhibition above about 30%; inactive = below that, where a call was filed. Only a part is listed here, and it is no random draw. Where no call is shown, the source filed none.

target: D(2) dopamine receptor (Homo sapiens) (UniProt P14416); assay: HTS Assay for Allosteric Antagonists of the Human D2 Dopamine Receptor: Primary Screen for Antagonists; conditions: HEK293 TREx D2 cells, calcium flux, dopamine EC80; at 10 µM; stronger effect = higher value; note: 0% is about no effect
Summary of the method: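 Antagonism is scored as inhibition of an EC80 dopamine-evoked calcium signal in a force-coupled, tetracycline-inducible HEK293 T-REx D2 line, with compound present 180 s before agonist.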

Chain of UniProt P14416 (P14416 whole entry, looked up): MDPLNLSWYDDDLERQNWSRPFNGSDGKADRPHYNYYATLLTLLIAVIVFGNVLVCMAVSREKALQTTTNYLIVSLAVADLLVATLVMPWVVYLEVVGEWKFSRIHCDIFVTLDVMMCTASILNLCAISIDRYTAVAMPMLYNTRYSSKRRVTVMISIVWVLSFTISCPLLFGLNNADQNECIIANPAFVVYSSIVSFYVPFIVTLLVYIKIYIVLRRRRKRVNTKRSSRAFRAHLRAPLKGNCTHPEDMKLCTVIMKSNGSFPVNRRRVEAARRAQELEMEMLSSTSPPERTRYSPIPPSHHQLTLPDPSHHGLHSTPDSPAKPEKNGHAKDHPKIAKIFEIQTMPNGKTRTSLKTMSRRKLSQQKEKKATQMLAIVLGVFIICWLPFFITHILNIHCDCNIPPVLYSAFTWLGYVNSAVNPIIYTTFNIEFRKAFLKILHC

Row | SMILES | inhibition
1 | COc1ccc(C2C(C(=O)Nc3cccnc3)=C(C)Nc3nc(SCc4ccccc4)nn32)cc1 (configuration not stated) | 1.43%
2 | Cc1ccc(C)c(NC(=O)C2CCCN2S(=O)(=O)c2ccc3c(c2)n(C)c(=O)c(=O)n3C)c1 (configuration not stated) | -4.1%
3 | COc1cc(-c2noc(-c3ccc(NC4CCCC4)c([N+](=O)[O-])c3)n2)cc(OC)c1OC | 10.6%
4 | CCOC(=O)CCCCN(Cc1ccccc1F)S(=O)(=O)c1ccc(F)c(C(=O)Nc2cc(Cl)cc(Cl)c2)c1 | 16.7%
5 | CCOc1ccc(NC(=O)Nc2cc3c(cc2N2CCCCC2)n(C)c(=O)n3C)cc1 | 18.2%
6 | O=C(NCc1ccc(F)cc1)c1nnc(Cc2cccc(F)c2)o1 | 22.1%
7 | COc1ccc(-c2noc(-c3cc(-c4ccc(F)cc4)n[nH]3)n2)cc1 | -1.46%
8 | C=CCc1cccc2cc(-c3nc4ccc(C(=O)O)cc4[nH]3)c(=O)oc12 | -8.01%
9 | CCCN(CC(=O)Nc1ccccc1C)C(=O)c1ccc(C(=O)c2ccccc2)cc1 | active: 42.8%
10 | O=C(Nc1ccccc1Br)c1cc(S(=O)(=O)NC2CCCCC2)ccc1F | -20.3%
11 | COc1cc(NC(=O)CN2CCCN(S(=O)(=O)c3ccc(F)cc3)CC2)cc(OC)c1 | 5.05%
12 | CCOC(=O)c1cc(S(=O)(=O)Nc2c(C)cc(C)cc2C)[nH]n1 | -9.86%
13 | Cc1ccc2nc(-c3ccc(NC(=O)COc4ccccc4C(C)(C)C)cc3)sc2c1 | 1.68%
14 | Cc1ccc2oc(C(=O)Nc3cccc(-c4nc5ccccc5s4)c3)c(C)c2c1 | 1.79%
15 | Cc1ccc(Nc2ncc(C(=O)N3CCN(c4cccc(Cl)c4)CC3)c3ccccc23)cc1Cl | -13.9%
16 | COc1ccccc1C(=O)c1cn(CC(=O)Nc2ccccc2F)c2nc(C)ccc2c1=O | -1.8%
17 | Cc1ccc(C)c(N2CCN(C(=O)c3cc(S(=O)(=O)N4CCC(C)CC4)cn3C)CC2)c1 | 14.8%
18 | COc1ccc(CC(=O)NCC(c2cccs2)S(=O)(=O)c2ccc(Cl)cc2)cc1 (configuration not stated) | 12.6%
19 | Cc1c(C(=O)N2CCCC2)oc2c1-c1nn(CC(=O)NC(C)c3ccccc3)cc1CC2 (configuration not stated) | 3.16%
20 | CCC(C(=O)Nc1cc(OC)ccc1OC)n1c(C)c2cnn(-c3ccccc3)c(=O)c2c1C (configuration not stated) | 10.4%
21 | COc1ccc(-n2ccn(CC(=O)NCc3ccc(C)cc3)c(=O)c2=O)cc1OC | 9.64%
22 | Cc1cc(F)ccc1NC(=O)c1ccc2nc(Cc3ccccc3)oc2c1 | -20.9%
23 | Cc1ccc(S(=O)(=O)NCCc2nnc3ccc(SCc4ccc(F)cc4)nn23)cc1 | 14.2%

Row | SMILES | inhibition
24 | CCCn1c2ccccc2c2cnn(CC(=O)N(Cc3ccccc3)C(C)C)c(=O)c21 | -7.5%
25 | CCCOc1ccc(-c2nc(N3CCC(C)CC3)c3ccccc3n2)cc1 | 9.62%
26 | CC(=O)NC12CC3CC(C1)CC(C(=O)N1CCN(S(=O)(=O)c4ccccc4[N+](=O)[O-])CC1)(C3)C2 | active: 44.6%
27 | N#CCCn1cc(/C=N/N=C2\NC(=O)C(CC(=O)O)S2)c(-c2ccc(F)cc2)n1 (configuration not stated) | active: 35.1%
28 | O=C(Nc1ccc(F)cc1)NC1CCN(Cc2ccccc2)CC1 | active: 52.9%
29 | Cc1oc(-c2ccc(Cl)cc2)cc1C(=O)NC1CCN(Cc2ccccc2)CC1 | active: 58.1%
30 | CCCCOc1ccc(S(=O)(=O)NCc2csc(-c3ccc(OC)cc3)n2)cc1 | 3.56%
31 | COc1ccc(-c2noc(N3CCC(C(=O)N(C)c4cc(Cl)ccc4OC)CC3)n2)cc1 | -10.9%
32 | CCOc1cc2[nH]c(=O)n(CCCCC(=O)N3CCN(c4ccccc4)CC3)c(=O)c2cc1OCC | 6.19%
33 | CCC(C)NC(=O)c1[nH]c2cc(C)ccc2c1Sc1ccc(Cl)cc1 (configuration not stated) | 16.1%
34 | COc1ccc(CCNC(=O)CCc2cn(Cc3ccc(C)cc3)c3ccccc23)c(OC)c1OC | -13.8%
35 | Cc1cccc(C)c1OCC(=O)Nc1c(C(=O)c2ccc(Br)cc2)oc2ccccc12 | 4.38%
36 | Cc1cccc(N2CCN(C(=O)C3CCN(S(=O)(=O)c4c(C)noc4C)CC3)CC2)c1C | -20.9%
37 | O=C(CN1C(=O)COc2ccc(S(=O)(=O)N3CCCCCC3)cc21)N1CCN(c2cccc(C(F)(F)F)c2)CC1 | 13%
38 | COc1ccc2oc(=O)c(-c3cn4c(n3)sc3cc(F)ccc34)cc2c1 | -10.4%
39 | CCC1=Nc2cc(C(=O)NCc3ccc(C)cc3)ccc2Sc2ccc(C)cc21 | 12.2%
40 | CCCCN(C)CCCNC(=O)c1cc(-c2cccnc2)nc2ccccc12 | 5.28%
41 | COc1ccc(-c2oc3ncn4nc(COc5ccccc5C)nc4c3c2-c2ccc(OC)cc2)cc1 | 1.76%
42 | COC(=O)c1ccc(OC)c(Cn2c(=O)n(-c3cccc(Cl)c3)c(=O)c3c4c(sc32)CN(C(C)=O)CC4)c1 | -15.4%
43 | Nc1nc(CN2CCN(c3cccc(Cl)c3)CC2)nc(N2CCCc3ccccc32)n1 | active: 70.4%
44 | CCOC(=O)C1CCCN(C(=O)Cn2ncn3c(cc4sc(CC)cc43)c2=O)C1 (configuration not stated) | -14.6%
45 | O=C(Nc1ccc(F)cc1)[C@@H](c1ccccc1)N1Cc2ccccc2C1=O | -12%
46 | COc1cc(OC)c(NC(=O)Cc2ccc(-n3c(C)nc4cccnc43)cc2)cc1Cl | 2.16%

Row | SMILES | inhibition
47 | Cc1ccc(C)c(NC(=O)CCc2c(C)nn(-c3ccc(N4CCCC4)nn3)c2C)c1 | -0.652%
48 | COc1ccc(NC(=O)CSc2nc(-c3ccc(F)cc3)c3cccc(C)c3n2)cc1 | 8.14%
49 | CCOc1ccc(CCNC(=O)c2ccc(-c3nc(COc4ccc(C)cc4)c(C)o3)cc2)cc1 | 9.8%
50 | Cc1ccc2nc(CN3CCN(C(=O)Nc4ccc(C)c(F)c4)CC3)oc2c1 | 9.72%
51 | COc1ccc(C2C(=O)N(C3CCCCCC3)CC(=O)N2CCc2ccc(OC)c(OC)c2)cc1 (configuration not stated) | -12.3%
52 | COc1ccc(CCNC(=O)c2ccc(Cn3c(=O)c4ccccc4n(Cc4ccc(C)cc4)c3=O)cc2)cc1OC | -24.7%
53 | COCCCn1c(SCC(=O)Nc2ccccc2OC)nc2c(sc3ccccc32)c1=O | 4.55%
54 | Cc1ccc(NC(=O)C(=O)NCC(c2ccc3c(c2)OCO3)N2CCN(c3ccccc3)CC2)cc1 (configuration not stated) | -16.5%
55 | O=C(c1cccs1)c1cn(CCOc2ccccc2Cl)c2ccccc12 | 8.11%
56 | CCN(C(=O)C(Cc1ccccc1)NS(=O)(=O)c1cccc2nsnc12)c1ccccc1 (configuration not stated) | 8.23%
57 | COc1ccc(NC(=O)Cn2c(=O)n(-c3ccc(OC)cc3)c(=O)c3ccc(C(=O)NCc4ccc(C)cc4)cc32)cc1 | -11.3%
58 | COc1cc(C(=O)NCCc2csc3nc(-c4ccccc4C)nn23)cc(OC)c1OC | -12.7%
59 | CC(C)c1ccc(NC(=O)CC2Oc3ccccc3NC2=O)cc1 (configuration not stated) | -7.29%
60 | COc1ccccc1CCNC(=O)CCc1c(C)c2cc3c(C)c(C)oc3cc2oc1=O | 20.8%
61 | Cc1ccc(Cl)cc1NC(=O)CN1C(=O)COc2ccc(S(=O)(=O)N3CCCCCC3)cc21 | 0.552%
62 | COc1cc(C(=O)Nc2c(C(=O)O)[nH]c3ccc(C)cc23)cc(OC)c1OC | active: 34.3%
63 | O=c1c2ccccc2nc(-c2ccc(Cl)cc2)n1CCCOc1ccccc1F | -7.22%
64 | Cc1ccc2c(c1)c(=O)c(Br)c(C)n2Cc1ccccc1 | active: 56.3%
65 | CCS(=O)(=O)c1c(Nc2cc(C)ccc2C)sc(C(=O)c2ccccc2)c1N | -15.1%
66 | CC1(C)CC(=O)C(=Cc2cn(-c3ccccc3)nc2-c2ccc(Cl)cc2)C(=O)C1 | active: 32.3%
67 | CC1=C(C(=O)Nc2ccccc2)C(c2cc(Br)ccc2F)n2ncc(C(=O)Nc3ccccc3)c2N1 (configuration not stated) | 13%
68 | Cc1ccc(C(=O)n2nc(C)c(S(=O)(=O)N3CCOCC3)c2C)cc1C | 8.33%
69 | Cc1ccc(NC(=O)c2nnn(CC(=O)Nc3ccc(C)c(Cl)c3)c2N)c(C)c1 | 8.68%

Row | SMILES | inhibition
70 | COc1ccc(CNC(=O)c2cc3c(=O)n(C)c4ccccc4c3n2C)c(OC)c1 | 4.88%
71 | Cc1cc(C)c2oc(-c3ccc(C)c(NC(=O)/C=C/c4ccco4)c3)nc2c1 | 9.82%
72 | Cc1nc(N2CCCC2)ncc1C(=O)N1CCN(c2ccccc2F)CC1 | -14.8%
73 | CC(C)C(=O)Nc1cccc(NC(=O)c2ccc([N+](=O)[O-])cc2Cl)c1 | active: 39.3%
74 | COc1ccc(Cn2c(CO)cnc2SCc2cccc(C)c2)cc1 | -3.87%
75 | CCN(CC(=O)Nc1c(F)cccc1F)C(=O)/C=C/c1cn(Cc2ccccc2)nc1-c1cccnc1 | active: 32.3%
76 | COc1ccccc1N1CCN(C(=O)CCS(=O)(=O)c2cc(Br)cc3c2N(C(C)=O)CC3)CC1 | -16.5%
77 | C=CC[C@H]1Cc2c(cccc2[N+](=O)[O-])[C@H](CC=C)N1 | active: 58.9%
78 | Cc1cccc(N(CC(N)=O)C2SC(=O)N(Cc3cccc(C(=O)O)c3)C2=O)c1 (configuration not stated) | -0.261%
79 | CC(Cc1ccco1)NC(=O)c1ccc(C(F)(F)F)cc1 (configuration not stated) | active: 32.2%
80 | Cc1c(-c2nnc(SCC(=O)Nc3ccc(Cl)cc3)o2)nnn1-c1ccc(F)cc1 | -13.8%
81 | Cc1cc(Br)cc2c(C(=O)OCC(=O)c3ccccc3)cc(-c3ccccc3)nc12 | 2.83%
82 | CCOC(=O)C1CCCN(Cc2ccc(OCc3ccccc3)cc2)C1 (configuration not stated) | active: 86.1%
83 | COc1ccccc1N1CCN(C(=O)c2cnc(N3CCOCC3)c3ccccc23)CC1 | 12.7%
84 | CCN1CCSc2ccc(C(=O)NCc3ccccc3Br)cc21 | 7.26%
85 | O=c1[nH]c(SCc2cccc(Cl)c2)nc2c1CCC2 | 15.4%
86 | COC(=O)c1ccc([C@H]2Nc3ccc(S(=O)(=O)Nc4cccc(C)c4)cc3[C@H]3C=CC[C@H]32)cc1 | 16.8%
87 | COCCNC(=O)CCCn1c(SCc2ccccc2Cl)nc2c(sc3ccccc32)c1=O | 14.5%
88 | CCCCOc1ccc(C(=O)N(Cc2ccco2)Cc2ccco2)cc1 | 7.81%
89 | COc1ccccc1C1CC(=O)N(c2cccc(C(F)(F)F)c2)C2=C1C(=O)OC2 (configuration not stated) | -0.62%
90 | COC(=O)c1c(-c2ccccc2)c(-c2ccccc2)nn(C)c1=O | -2.29%
91 | COc1ccc(-n2c(=O)c3c(c4cc(OC)ccc4n3C)n(CCC(C)C)c2=O)cc1 | -3.04%
92 | COc1ccc(-n2c(=O)c3sc4ccccc4c3n(CC(=O)NC3CCCCC3)c2=O)cc1 | -9.18%
